This note sets out measurements from ChEMBL document CHEMBL4888484, “Replenishing the malaria drug discovery pipeline: Screening and hit evaluation of the MMV Hit Generation Library 1 (HGL1) against asexual blood stage Plasmodium falciparum ,using a nano luciferase reporter read-out” (2022).

In general, % Inhibition refers to the change of the read-out against control, counted positive when it falls.

Molecules are shown by their SMILES. Out of some 150,000 compounds screened, about 540 (0.36%) showed an effect of 50% or more. Some of the results follow.

The subject of this assay is Plasmodium falciparum. The assay can be described thus: Primary screen in NF54 nanoGlo assay, in single point, at 2uM, 72h; a lower Z score goes with more inhibition. Type of assay: functional, Erythrocyte. As to conditions: timepoint 72 hour.
As to `Cc1nc(-c2ccccc2)ncc1C(=O)N1CC[C@H](CS(N)(=O)=O)C1`, the “% Inhibition” value is given as -4% and the Z score is given as 0.78.
As to `CC1(C)CN(C(=O)Cc2cccc(Br)c2)CC[S@@+]1[O-]`, the “% Inhibition” value amounted to 30% and the Z score is recorded as -3.34.
With `Cc1nn(Cc2ccccc2)c2nc(-c3nn(C)cc3Cl)[nH]c12`, the “% Inhibition” value worked out at 0% and the Z score came to 0.02.
Consider `CS(=O)(=O)N1C[C@H]2CC[C@@H](C1)N(C(=O)c1onc3c1CCCC3)C2`, for which the “% Inhibition” value is listed as -19% and the Z score came to 2.58.
For `COc1ccc(CC[C@H](C)N2CCC(=O)N(CCN3CCCCC3)CC2)cc1`, the “% Inhibition” value is reported as 2% and the Z score is -0.23.
For the compound `CN1C[C@@]2(CCN(C(=O)CC3CCCC3)C2)OCC1=O`, the “% Inhibition” value was determined as 3% and the Z score is listed as -0.48.
For the compound `Cc1cc2ncnc(N3CCC(Cn4cnc(C)c(C)c4=O)CC3)c2[nH]1`, the “% Inhibition” value came out at 1% and the Z score was -0.17.
`O=C(c1ccoc1)N1CC(Cn2ccnn2)C1`: the “% Inhibition” value was -4% and the Z score is 0.86.
For the compound `COCCNC(=O)c1ccc(CC2CCN(C(=O)c3cccn3C)CC2)cc1`, the “% Inhibition” value was -4% and the Z score turned out to be 0.54.
Take `O=C(c1cc[n+]([O-])cc1)N1CCO[C@H](c2ccccc2)C1`: the “% Inhibition” value is listed as -36% and the Z score is given as 4.19.
For `O=C(c1cc(C2CC2)no1)N1CC[C@H](Oc2ccc(Cl)c(Cl)c2)C1`, in that order: 7% and -0.9.
As for `CC(C)C(C)(NCC1CCN1C(=O)OC(C)(C)C)C(N)=O` (stereo unspecified), the “% Inhibition” value was -5% and the Z score was found to be 0.8.
In the case of `CNc1nc(C(=O)NCc2nccn2C(C)C)cs1`, the “% Inhibition” value is -14% and the Z score was 1.99.
In the case of `COCCn1cc2c(n1)[C@@H](Nc1ccnc(C3CC3)n1)CCC2`, the “% Inhibition” value is reported as 7% and the Z score is listed as -0.92.
As for `CC(C)c1nnc(NC(=O)c2cccc(N(C)C)c2)s1`, the “% Inhibition” value is recorded as 32% and the Z score is reported as -3.68.
In the case of `CC1=N[C@H]2CC(=O)NN2C(C)=C1CCC(=O)NCCOc1ccccc1F`, the “% Inhibition” value is -6% and the Z score is reported as 0.74.
For the compound `Cc1c(NC(=O)CN(C)Cc2cnc3ccccc3c2)cnn1C`, the “% Inhibition” value is recorded as -11% and the Z score is 1.76.
For `CC(C)Oc1ccc2c(NC(=O)[C@@H](N)CO)nn(Cc3ccccc3)c2c1`, in that order: 2% and -0.39.
In the case of `Cc1ncc(S(=O)(=O)N2CCC[C@H](n3ccnn3)C2)s1`, the “% Inhibition” value is listed as 3% and the Z score is reported as -0.42.
With `Cc1nc(-c2ccco2)ccc1C(=O)N[C@H]1CCC(=O)N(C)C1`, the “% Inhibition” value is listed as -6% and the Z score is given as 0.84.
Regarding `C[C@@H](c1ccccn1)N(Cc1ccccc1)C(=O)c1cnn(C)c1`, the “% Inhibition” value is on record as -2% and the Z score is given as 0.18.
For `O=C(CCn1c(=O)[nH]c2ccccc21)N1C[C@@H]2[C@@H]3CC[C@@H](C3)[C@@H]2C1`, in that order: -11% and 1.43.
Turning to `CC1=C(C)CC(C(=O)N2CCN(c3cccc(C(F)(F)F)c3)CC2)C(C(=O)O)C1` (stereo unspecified), the “% Inhibition” value was -1% and the Z score is 0.17.
For `Cc1noc(CN(C)CC(=O)N2CCCC2)n1`, the “% Inhibition” value stood at 1% and the Z score was -0.11.
For `COc1ccc(C(F)(F)C(=O)NC(C)C2CN(C)CCO2)cc1` (stereo unspecified), the “% Inhibition” value stood at 0% and the Z score is listed as -0.03.
Turning to `CC(C)n1cc(NC(=O)N(C)[C@@H](C)CC#N)cn1`, the “% Inhibition” value came to 6% and the Z score is -0.73.
`Nc1ncnc(NC[C@H]2CCN(c3ccccc3)C2)c1Cl`: the “% Inhibition” value is -13% and the Z score is on record as 1.37.
Consider `CCc1c(C)sc(NC(=O)c2cccc(-n3cnnn3)c2)c1C#N`, for which the “% Inhibition” value is recorded as -6% and the Z score turned out to be 0.72.
With `Cc1c(-c2noc(C(=O)NC3CCCCCC3)n2)oc2c(C)cccc12`, the “% Inhibition” value is -7% and the Z score was 1.07.
As for `Cc1cc(F)cc(C(=O)NS(=O)(=O)CC(C)C)c1`, the “% Inhibition” value was 0% and the Z score is reported as -0.02.
In the case of `Cc1ccnc(-n2cccc2-c2cc(-c3cn(C)nc3C)nc(N)c2C#N)c1`, the “% Inhibition” value was -10% and the Z score was found to be 1.3.
For the compound `CCS(=O)(=O)N1CCN(C2CCC(c3ccccc3)CC2)CC1` (stereo unspecified), the “% Inhibition” value is recorded as 9% and the Z score is given as -1.03.
As to `O=C(N[C@H]1CCOC12CCOCC2)c1ccc2c(c1)CCCC2=O`, the “% Inhibition” value is -5% and the Z score came to 0.63.
For the compound `O=C1N[C@H]2CCC[C@@H]1CN(Cc1nc(-c3ccccc3)no1)C2`, the “% Inhibition” value was -8% and the Z score is 0.79.
On to `COC(=O)CNC(=O)[C@@H](CC(C)C)NC(=O)[C@H]1CCCN1C(=O)OC(C)(C)C`, for which the “% Inhibition” value is given as -10% and the Z score is given as 1.23.
`COC(=O)C1CC(Oc2ccccc2F)CN1C(=O)c1ccccc1` (stereo unspecified): the “% Inhibition” value was -10% and the Z score is 1.82.
As for `COc1ccc(CCNC(=O)c2n[nH]c3c2CN(C(=O)Cc2ccc(Cl)c(Cl)c2)CC3)cc1OC`, the “% Inhibition” value is reported as 11% and the Z score is recorded as -1.34.
`CCCc1nc(C)c(CNCc2cnc(NC[C@H]3CCCO3)nc2)s1`: the “% Inhibition” value is recorded as -10% and the Z score was found to be 1.64.
For the compound `CC(C)CC(=O)N1CCC[C@H](Oc2nc(C3CC3)nc3c2CCOCC3)C1`, the “% Inhibition” value was -13% and the Z score worked out at 1.23.
As for `Cc1n[nH]c(C)c1[C@H](C)NC(=O)Cc1ccc(O)c(F)c1`, the “% Inhibition” value was -16% and the Z score worked out at 1.52.
Regarding `Cc1c(Cl)ccc2c1NC(=O)C2(c1c[nH]c2ccccc12)c1c[nH]c2ccccc12`, the “% Inhibition” value is reported as -3% and the Z score amounted to 0.41.
On to `O=C(NC1(C(=O)NC2CCCC2)CCCCC1)c1ccc2c(c1)OCO2`, for which the “% Inhibition” value was -1% and the Z score is listed as 0.17.
For the compound `COCC1(C(=O)NCCOCc2ccccc2)CCC1`, the “% Inhibition” value is reported as -3% and the Z score was 0.6.
Take `Cc1c(Cl)cccc1NC(=O)N[C@H]1CCN(Cc2noc(-c3ccccc3)n2)C1`: the “% Inhibition” value is recorded as -6% and the Z score amounted to 0.87.
Consider `CC(=O)Nc1nc2ccc(NC(=O)c3cc(Cl)c4c(c3)OCCCO4)cc2s1`, for which the “% Inhibition” value is recorded as -3% and the Z score is reported as 0.47.
As for `C[C@H]1CCCCN1CCNC(=O)CCc1cn(C)nc1-c1ccc(F)cc1`, the “% Inhibition” value is -10% and the Z score was determined as 1.32.
`CC(C)N1CC[C@H](n2nc(C(C)(C)C)ccc2=O)C1=O`: the “% Inhibition” value was -2% and the Z score was determined as 0.33.
The corresponding values for `C[C@@H]1CN(Cc2cccc(-c3cccnc3)c2)CC(C(N)=O)O1` (stereo partly specified) are -11% and 0.97.
In the case of `Cc1ccc(F)cc1NC(=O)c1cc(F)ccc1-n1ccnc1`, the “% Inhibition” value was 0% and the Z score amounted to 0.03.
With `CN1CCN(Cc2nccn2CC(F)(F)F)c2ccccc21`, the “% Inhibition” value is reported as 12% and the Z score is on record as -1.37.
Take `Cc1c(F)cccc1S(=O)(=O)N[C@@H](C)C(N)=O`: the “% Inhibition” value is 2% and the Z score is on record as -0.32.
For the compound `CCOc1ccccc1NC(=O)N(CC)c1nc(-c2ccc(C3CCCCC3)cc2)cs1`, the “% Inhibition” value was -5% and the Z score stood at 0.89.
For `COc1nn(C)cc1CNC(=O)C1(c2ccccc2C)CCCCC1`, in that order: -1% and 0.22.
As for `CO[C@@H](CS(=O)(=O)Nc1cc(O)c(Cl)cc1Cl)C(C)C`, the “% Inhibition” value came to 5% and the Z score is -0.98.
As for `O=C(c1ccc(F)cc1F)N1CCC2(CC1)OC[C@@H](C(=O)N1CCCC1)N2C(=O)c1ccccc1`, the “% Inhibition” value was -2% and the Z score amounted to 0.22.
Turning to `C[C@](O)(CNC(=O)CC1CC1)c1cc2ccccc2s1`, the “% Inhibition” value was -21% and the Z score was found to be 2.67.
For `CC[C@H](C)Oc1cccc2c1cc(C(=O)N1CCN(Cc3ccc4c(c3)OCO4)CC1)n2Cc1ccccc1`, in that order: -12% and 1.41.
With `CCN(Cc1noc(CC(C)C)n1)C(=O)c1cc(C)[nH]c(=O)c1`, the “% Inhibition” value is given as -9% and the Z score is reported as 1.39.
Consider `FC(F)(F)Cn1nnnc1CN1CCCCC2CCCCC21` (stereo unspecified), for which the “% Inhibition” value is reported as -12% and the Z score came to 1.17.
As to `O=S(=O)(c1ccc(Cl)s1)N1CC[C@H](c2noc(C(F)(F)F)n2)C1`, the “% Inhibition” value was 8% and the Z score is reported as -1.36.
Consider `CC(C)c1cccc(Cn2c(N)nc(C#N)c2C#N)n1`, for which the “% Inhibition” value is recorded as -8% and the Z score is 0.77.
Consider `COCCOC(=O)N1CCCC[C@H](NC(=O)c2ccoc2C)C1`, for which the “% Inhibition” value is given as 2% and the Z score is on record as -0.33.
With `Cn1nncc1NC(=O)c1ccccc1OCC1CC1`, the “% Inhibition” value was found to be 3% and the Z score was -0.47.
Take `FC(F)(F)c1cccnc1N1CCC[C@H](C2OCCO2)C1`: the “% Inhibition” value is listed as -15% and the Z score is reported as 2.26.
The corresponding values for `COC(=O)[C@]1(C)CN(C(=O)c2cc(Cl)c(N)c(Cl)c2)C[C@H]1C` are -3% and 0.39.
On to `O=C(O)Cc1cccc(C(=O)NC2(Cc3cccc(F)c3)CCC2)c1`, for which the “% Inhibition” value was -15% and the Z score is recorded as 1.99.
For the compound `Clc1cccc(CN(CCCN2CCCCCC2)C2CCOCC2)c1`, the “% Inhibition” value is listed as 8% and the Z score is listed as -1.31.
Regarding `CC(COC1CCCC1)CS(=O)(=O)N1CCC(C)C(n2ccnc2)C1` (stereo unspecified), the “% Inhibition” value was -11% and the Z score was 2.15.
Consider `Cc1n[nH]c(-c2cc(S(=O)(=O)N[C@H]3CCCc4ccccc43)c(C)s2)c1C`, for which the “% Inhibition” value is recorded as 13% and the Z score is on record as -2.41.
Take `C[C@H]1CN(C(=O)c2ccc(-c3nc(C4CC4)no3)cc2)CCN1`: the “% Inhibition” value is recorded as -12% and the Z score stood at 2.38.
Regarding `CC[C@](O)(C(=O)N1CC(NC(=O)COC)C1)c1cccc(Cl)c1`, the “% Inhibition” value was -11% and the Z score was found to be 1.58.
Regarding `CCc1nc(CC(=O)N2CCN(c3ccccn3)CC2)cs1`, the “% Inhibition” value is listed as -10% and the Z score is reported as 1.29.
The corresponding values for `COC(=O)Nc1nc(-c2ccccc2)c(-c2nccc(OCC(F)(F)F)c2C)s1` are 30% and -3.82.
For `CCOc1ccc(-c2ncnc(N3CCN(C)CC3)c2N)cc1`, in that order: -10% and 1.27.
Turning to `Cc1nn(C)c(C)c1CCc1nc([C@H]2CCOC2)no1`, the “% Inhibition” value is -6% and the Z score was 1.12.
For `C[C@H](NCCCC(=O)N1CCc2ccccc2C1)c1cnccn1`, in that order: -5% and 0.55.
For `Cn1cc(-c2noc(C3CC4CCC3C4)n2)cn1` (stereo unspecified), the “% Inhibition” value is reported as -2% and the Z score is recorded as 0.2.
For `COCCCNC(=O)c1ccc(CN2C(=O)CCn3nccc32)cc1`, the “% Inhibition” value stood at 13% and the Z score is -1.46.
For `O=C(CC1CCN(C(=O)c2cc3ccccc3[nH]2)CC1)NCc1cccc(Cl)c1`, the “% Inhibition” value is given as 12% and the Z score is given as -1.43.
With `CCCN1CCN(CCCNC(=O)[C@H]2CCCN(c3nc4ncccc4n4cccc34)C2)CC1`, the “% Inhibition” value came to 6% and the Z score is listed as -0.68.
For `COc1ccccc1/C=C/CN1CCN(C(=O)N(C)C)[C@H]2CS(=O)(=O)C[C@H]21`, the “% Inhibition” value is reported as 1% and the Z score is given as -0.08.
As for `Cc1cc(S(=O)(=O)Nc2cnc3c(c2)COCC3)c(C)s1`, the “% Inhibition” value is on record as -3% and the Z score is 0.47.
With `Cc1cc(C)cc(NC(=O)[C@H]2CC23CCN(Cc2cccc4cccnc24)CC3)c1`, the “% Inhibition” value is recorded as 14% and the Z score is reported as -1.2.
